From article PMC5805371
Like-named read-outs stand apart in the source and are kept apart here. Results are given in words; binding and its absence hold for the method and conditions named. In cells and extracts the contact can be indirect. Some entries that bind do so weakly or less than the wild type. For some of these results: Sequences can lack the tags named with a protein. One block for each molecule: values may come before it.

Sequences of proteins named here, by UniProt entry; tags and fusion partners are left off.
UniProt Q92973: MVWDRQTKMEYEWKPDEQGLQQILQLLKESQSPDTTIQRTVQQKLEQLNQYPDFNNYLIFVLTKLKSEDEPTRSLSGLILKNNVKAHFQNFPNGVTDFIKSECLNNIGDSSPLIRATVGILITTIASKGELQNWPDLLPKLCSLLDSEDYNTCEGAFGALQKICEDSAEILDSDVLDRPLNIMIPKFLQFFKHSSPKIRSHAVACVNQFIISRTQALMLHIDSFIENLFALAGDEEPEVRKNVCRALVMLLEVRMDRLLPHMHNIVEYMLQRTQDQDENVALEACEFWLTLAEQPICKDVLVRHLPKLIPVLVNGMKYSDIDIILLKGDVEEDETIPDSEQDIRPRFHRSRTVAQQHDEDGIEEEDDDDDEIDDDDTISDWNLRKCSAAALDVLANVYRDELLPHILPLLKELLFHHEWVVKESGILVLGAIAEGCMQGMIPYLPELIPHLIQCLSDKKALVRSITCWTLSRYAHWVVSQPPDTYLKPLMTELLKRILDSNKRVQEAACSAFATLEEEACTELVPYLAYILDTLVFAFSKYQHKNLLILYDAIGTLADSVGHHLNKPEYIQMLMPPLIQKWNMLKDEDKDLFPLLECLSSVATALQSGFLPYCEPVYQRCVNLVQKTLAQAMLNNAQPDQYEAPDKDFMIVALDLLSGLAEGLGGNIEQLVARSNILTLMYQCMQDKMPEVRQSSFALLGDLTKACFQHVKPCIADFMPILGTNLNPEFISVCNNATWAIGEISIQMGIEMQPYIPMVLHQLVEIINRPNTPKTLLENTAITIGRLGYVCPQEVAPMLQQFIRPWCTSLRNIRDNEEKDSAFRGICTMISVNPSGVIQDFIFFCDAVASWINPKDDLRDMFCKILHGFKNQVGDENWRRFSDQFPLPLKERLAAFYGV
UniProt O54943: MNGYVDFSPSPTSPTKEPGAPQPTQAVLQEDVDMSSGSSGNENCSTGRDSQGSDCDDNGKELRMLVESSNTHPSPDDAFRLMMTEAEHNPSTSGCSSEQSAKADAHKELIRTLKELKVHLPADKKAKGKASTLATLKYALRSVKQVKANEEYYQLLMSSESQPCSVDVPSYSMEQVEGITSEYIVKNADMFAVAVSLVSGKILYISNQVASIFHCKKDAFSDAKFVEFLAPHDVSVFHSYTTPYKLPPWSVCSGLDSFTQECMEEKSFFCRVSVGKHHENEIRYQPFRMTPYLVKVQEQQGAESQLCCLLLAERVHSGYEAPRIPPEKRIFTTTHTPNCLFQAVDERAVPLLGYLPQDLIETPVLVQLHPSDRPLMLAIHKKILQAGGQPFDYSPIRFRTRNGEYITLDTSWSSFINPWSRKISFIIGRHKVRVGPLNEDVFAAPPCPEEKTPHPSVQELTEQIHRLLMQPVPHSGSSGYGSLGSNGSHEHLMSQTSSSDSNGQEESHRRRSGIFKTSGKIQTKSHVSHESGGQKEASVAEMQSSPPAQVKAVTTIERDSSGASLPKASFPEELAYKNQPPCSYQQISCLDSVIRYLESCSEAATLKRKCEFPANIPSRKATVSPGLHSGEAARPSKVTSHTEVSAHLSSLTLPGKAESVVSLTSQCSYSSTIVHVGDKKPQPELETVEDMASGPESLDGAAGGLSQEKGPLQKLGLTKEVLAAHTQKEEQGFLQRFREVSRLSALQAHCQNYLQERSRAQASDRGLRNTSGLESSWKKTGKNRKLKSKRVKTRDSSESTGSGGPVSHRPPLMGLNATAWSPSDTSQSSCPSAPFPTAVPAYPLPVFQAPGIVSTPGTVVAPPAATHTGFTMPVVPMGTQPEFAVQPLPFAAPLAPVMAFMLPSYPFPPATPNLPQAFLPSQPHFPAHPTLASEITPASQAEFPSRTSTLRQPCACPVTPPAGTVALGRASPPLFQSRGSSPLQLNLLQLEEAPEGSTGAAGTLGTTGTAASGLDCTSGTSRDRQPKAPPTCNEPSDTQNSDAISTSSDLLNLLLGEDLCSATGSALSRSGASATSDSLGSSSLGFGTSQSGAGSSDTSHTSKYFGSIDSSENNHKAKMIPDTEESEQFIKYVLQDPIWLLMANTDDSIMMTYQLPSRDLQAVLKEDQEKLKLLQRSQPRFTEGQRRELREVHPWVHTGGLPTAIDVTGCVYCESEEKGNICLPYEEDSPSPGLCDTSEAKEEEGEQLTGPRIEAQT
UniProt P00722: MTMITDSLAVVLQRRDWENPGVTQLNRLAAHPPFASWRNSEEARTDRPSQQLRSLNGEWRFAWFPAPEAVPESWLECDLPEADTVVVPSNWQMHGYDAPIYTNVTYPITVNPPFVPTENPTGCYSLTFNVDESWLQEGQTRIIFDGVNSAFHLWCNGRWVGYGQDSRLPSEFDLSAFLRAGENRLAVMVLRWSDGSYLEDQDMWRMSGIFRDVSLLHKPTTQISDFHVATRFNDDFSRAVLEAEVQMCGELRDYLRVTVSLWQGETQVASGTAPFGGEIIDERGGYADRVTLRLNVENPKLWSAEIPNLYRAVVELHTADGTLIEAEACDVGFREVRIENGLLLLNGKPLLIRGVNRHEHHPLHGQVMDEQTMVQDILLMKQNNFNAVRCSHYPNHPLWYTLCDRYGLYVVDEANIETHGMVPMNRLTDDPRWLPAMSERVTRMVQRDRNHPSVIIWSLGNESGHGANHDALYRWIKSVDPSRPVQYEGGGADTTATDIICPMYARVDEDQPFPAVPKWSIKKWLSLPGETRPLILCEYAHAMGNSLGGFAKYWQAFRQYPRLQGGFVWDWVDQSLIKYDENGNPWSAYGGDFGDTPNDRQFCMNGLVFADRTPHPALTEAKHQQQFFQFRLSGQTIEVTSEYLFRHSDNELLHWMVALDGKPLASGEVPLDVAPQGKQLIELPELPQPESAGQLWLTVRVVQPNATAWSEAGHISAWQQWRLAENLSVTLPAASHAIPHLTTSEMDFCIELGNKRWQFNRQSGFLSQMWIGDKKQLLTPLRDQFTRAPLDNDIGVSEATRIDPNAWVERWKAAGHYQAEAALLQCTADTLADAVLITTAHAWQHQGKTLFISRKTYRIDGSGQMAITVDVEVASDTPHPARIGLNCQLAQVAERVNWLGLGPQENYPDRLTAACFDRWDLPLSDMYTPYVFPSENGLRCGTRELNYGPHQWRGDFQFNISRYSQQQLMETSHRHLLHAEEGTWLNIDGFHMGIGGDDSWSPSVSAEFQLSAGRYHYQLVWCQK

Columns and labels:
[1] = biological target: LUC1-TNPO1 (UniProt Q92973); assay: split reporter; split firefly luciferase complementation in transiently transfected HEK293 cells (400 ng each construct), activity measured in cell lysates 48 h after transfection, normalised to renilla luciferase
[2] = biological target: MYC-tagged TNPO1 (UniProt Q92973); assay: co-IP; luciferase-based read-out: HEK293 cells co-expressing PER1/2-Luc and MYC-TNPO1 (anti-MYC IP) or PER1/2-V5 and TNPO1-Luc (anti-V5 IP), lysed in PKB buffer without protease and phosphatase inhibitors, agarose G+ beads, 4°C, washed with ice cold PBS; luminescence counts relative to normal mouse IgG control IPs; also done with 200 μM H2O2 (higher signals for PER1, not PER2)
[3] = biological target: V5-tagged PER2 (not stated (mPER2 CDS named for the Venus constructs)) (UniProt O54943); assay: as above
[4] = biological target: V5-tagged PER1 (not stated (human PER1 in the scheme of Fig 3D; mPER1 CDS named for the Venus constructs)) (UniProt O15534); assay: as above
[5] = biological target: Transportin 1 (TNPO1), endogenous (human (endogenous in U-2 OS)) (UniProt Q92973); assay: condition: only reducing conditions (1 mM TCEP in the lysis buffer); co-IP; as a5 but under reducing conditions: 1 mM TCEP added to the PKB lysis buffer
[6] = biological target: Transportin 1 (TNPO1), endogenous (human (endogenous in U-2 OS)) (UniProt Q92973); assay: co-IP; U-2 OS cells stably expressing PER1-LUCIFERASE, lysate in PKB buffer, IP with anti-TNPO1 (ab10303) of endogenous TNPO1 against IgG control, luciferase read-out; also with increasing H2O2 concentrations and 200 μM diamide (increased signal)
[7] = biological target: MYC-tagged TNPO1 (UniProt Q92973); assay: co-IP; luciferase-based read-out: HEK293 cells co-expressing PER1/2-Luc and MYC-TNPO1 (anti-MYC IP) or PER1/2-V5 and TNPO1-Luc (anti-V5 IP), lysed in PKB buffer without protease and phosphatase inhibitors, agarose G+ beads, 4°C, washed with ice cold PBS; luminescence counts relative to normal mouse IgG control IPs; also done with 200 μM H2O2 (higher signals for PER1, not PER2); remark: listed apart in the source

Molecule: LUC2-βGAL (from UniProt P00722 1-1024)
binding [1]: no binding

Molecule: PER2 fused to full-length firefly luciferase (from UniProt O54943 1-1257)
binding [2]: binds weakly

Molecule: PER1-LUC2 (from UniProt O15534 1-1290)
binding [1]: binds

Molecule: PER1-LUCIFERASE fusion protein (stably expressed in U-2 OS cells) (from UniProt O15534 1-1290)
binding [5]: no binding
binding [6]: binds

B2: PER1 (amino acids 1–924)-LUCIFERASE (domain or fragment, UniProt O15534 1-924)
chain: MSGPLEGADGGGDPRPGESFCPGGVPSPGPPQHRPCPGPSLADDTDANSNGSSGNESNGHESRGASQRSSHSSSSGNGKDSALLETTESSKSTNSQSPSPPSSSIAYSLLSASSEQDNPSTSGCSSEQSARARTQKELMTALRELKLRLPPERRGKGRSGTLATLQYALACVKQVQANQEYYQQWSLEEGEPCSMDMSTYTLEELEHITSEYTLQNQDTFSVAVSFLTGRIVYISEQAAVLLRCKRDVFRGTRFSELLAPQDVGVFYGSTAPSRLPTWGTGASAGSGLRDFTQEKSVFCRIRGGPDRDPGPRYQPFRLTPYVTKIRVSDGAPAQPCCLLIAERIHSGYEAPRIPPDKRIFTTRHTPSCLFQDVDERAAPLLGYLPQDLLGAPVLLFLHPEDRPLMLAIHKKILQLAGQPFDHSPIRFCARNGEYVTMDTSWAGFVHPWSRKVAFVLGRHKVRTAPLNEDVFTPPAPSPAPSLDTDIQELSEQIHRLLLQPVHSPSPTGLCGVGAVTSPGPLHSPGSSSDSNGGDAEGPGPPAPVTFQQICKDVHLVKHQGQQLFIESRARPQSRPRLPATGTFKAKALPCQSPDPELEAGSAPVQAPLALVPEEAERKEASSCSYQQINCLDSILRYLESCNLPSTTKRKCASSSSYTTSSASDDDRQRTGPVSVGTKKDPPSAALSGEGATPRKEPVVGGTLSPLALANKAESVVSVTSQCSFSSTIVHVGDKKPPESDIIMMEDLPGLAPGPAPSPAPSPTVAPDPAPDAYRPVGLTKAVLSLHTQKEEQAFLSRFRDLGRLRGLDSSSTAPSALGERGCHHGPAPPSRRHHCRSKAKRSRHHQNPRAEAPCYVSHPSPVPPSTPWPTPPATTPFPAVVQPYPLPVFSPRGGPQPLPPAPTSVPPAAFPAPLVTPMVALVLP
binding [7]: binds

The remaining lines, values ahead:

binding [2]: binds
Molecule: PER1 fused to full-length firefly luciferase (HEK293) (from UniProt O15534 1-1290)

binding [3]: binds weakly
binding [4]: binds
Molecule: TNPO1-luciferase (from UniProt Q92973 1-898)

binding [7]: no binding
B1: PER1 (amino acids 1–706)-LUCIFERASE (domain or fragment, UniProt O15534 1-706)
chain: MSGPLEGADGGGDPRPGESFCPGGVPSPGPPQHRPCPGPSLADDTDANSNGSSGNESNGHESRGASQRSSHSSSSGNGKDSALLETTESSKSTNSQSPSPPSSSIAYSLLSASSEQDNPSTSGCSSEQSARARTQKELMTALRELKLRLPPERRGKGRSGTLATLQYALACVKQVQANQEYYQQWSLEEGEPCSMDMSTYTLEELEHITSEYTLQNQDTFSVAVSFLTGRIVYISEQAAVLLRCKRDVFRGTRFSELLAPQDVGVFYGSTAPSRLPTWGTGASAGSGLRDFTQEKSVFCRIRGGPDRDPGPRYQPFRLTPYVTKIRVSDGAPAQPCCLLIAERIHSGYEAPRIPPDKRIFTTRHTPSCLFQDVDERAAPLLGYLPQDLLGAPVLLFLHPEDRPLMLAIHKKILQLAGQPFDHSPIRFCARNGEYVTMDTSWAGFVHPWSRKVAFVLGRHKVRTAPLNEDVFTPPAPSPAPSLDTDIQELSEQIHRLLLQPVHSPSPTGLCGVGAVTSPGPLHSPGSSSDSNGGDAEGPGPPAPVTFQQICKDVHLVKHQGQQLFIESRARPQSRPRLPATGTFKAKALPCQSPDPELEAGSAPVQAPLALVPEEAERKEASSCSYQQINCLDSILRYLESCNLPSTTKRKCASSSSYTTSSASDDDRQRTGPVSVGTKKDPPSAALSGEGATPRKEPVVGGTLSPL
